Hit rate of the full screen: of about 370,000 compounds, about 150 (0.041%) were called active. This list was built around the results that the source calls inconclusive (neither active nor inactive); the mix of calls is not that of the screen. The call rests on the fitted dose curve; in most records, active means well fitted inhibition curve with a large enough effect; inconclusive means small, poorly fitted or top-dose-only effect; inactive means flat fitted curve, though single readings scatter. No potency is given beside an inconclusive call; the fits are too rough.
Each compound was assayed against Beta-lactamase (Escherichia coli (strain K12)) (UniProt P00811) (assay: qHTS Inhibitors of AmpC Beta-Lactamase (assay with detergent)). Settings: AmpC hydrolysis of nitrocefin, absorbance 480 nm, 0.01% Triton; activity change, negative = inhibition: at 114 µM (top of the series).
Chain of UniProt P00811 (P00811 whole entry, looked up): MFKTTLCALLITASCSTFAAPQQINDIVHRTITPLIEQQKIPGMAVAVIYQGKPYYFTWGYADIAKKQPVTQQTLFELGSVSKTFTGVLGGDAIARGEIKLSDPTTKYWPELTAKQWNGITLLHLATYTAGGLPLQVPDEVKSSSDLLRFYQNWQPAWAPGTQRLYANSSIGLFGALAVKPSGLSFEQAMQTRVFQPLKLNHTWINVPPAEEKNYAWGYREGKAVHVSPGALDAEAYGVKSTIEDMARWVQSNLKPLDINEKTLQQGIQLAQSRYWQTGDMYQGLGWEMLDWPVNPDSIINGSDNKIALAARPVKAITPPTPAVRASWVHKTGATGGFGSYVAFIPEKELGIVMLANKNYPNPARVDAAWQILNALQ
Summary of the method: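 20 mM phosphate pH 7.0 + 0.01% (detergent screen) or 0.0001% Triton X-100; 5.3 nM AmpC reagent; cpd preinc 15 min RT; nitrocefin (800 uM stock) to start; A480 q20 s × 4 min; Activity was normalised to no-enzyme and no-compound control wells.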
For `COc1cccc(N(CC(=O)O)S(=O)(=O)c2ccccc2)c1`, the Potency was inconclusive [inhibitor, full curve].
For `CCCn1nnc(NC(=O)c2ccc(OC)cc2)n1`, the Potency was inconclusive [inhibitor, full curve, poor fit].
With `CC12CC(NC(=O)N1Cc1ccccc1)c1ccccc1O2` (stereo not drawn) the Potency was inconclusive [inhibitor, partial curve, poor fit].
For `CCOC(=O)c1c(-c2ccccc2)csc1NC(=O)CSc1nnnn1C`, the Potency was inconclusive [inhibitor, full curve, poor fit].
In the case of `COCCn1ccc2c(OCC(=O)NCCc3ccccc3)cccc2c1=O`, the Potency was inconclusive [inhibitor, partial curve, poor fit].
With `CN(C)C(=O)N1CCN(C(=O)N2CCOCC2)CC1` the Potency was inconclusive [inhibitor, partial curve].
With `O=C(Cc1c(C(=O)O)[nH]c2ccc(Cl)cc12)Nc1ccc2c(c1)OCCO2` the Potency was inconclusive [inhibitor, full curve, poor fit].
`CC1=NS(=O)(=O)c2cc(Cl)ccc2N1` was tested, and the Potency was inconclusive [inhibitor, single point].
`O=C(COC(=O)CNC(=O)c1ccccc1)Nc1ccccc1Cl` was tested, and the Potency was inconclusive [inhibitor, partial curve].
In the case of `Cc1ccc(C(=O)NCCNC(=O)c2ccco2)cn1`, the Potency was inconclusive [inhibitor, full curve, poor fit].
With `COc1cccc2c(=O)n(CC(=O)N3CCCc4ccccc43)ccc12` the Potency was inconclusive [inhibitor, single point].
For `COC(=O)c1cc(OC)c(OC)cc1NCC(=O)Nc1cccc(C(F)(F)F)c1`, the Potency was inconclusive [inhibitor, partial curve].
`Cc1ccc(-c2csc3nc(C)n(N)c(=O)c23)o1` was tested, and the “activity change, negative = inhibition” value was inactive: -8.42%.
In the case of `O=C1NCCc2cc3c(cc21)OCO3`, the Potency was inconclusive [inhibitor, partial curve, poor fit].
`CN1CCN(Cc2oc(CO)cc(=O)c2O)CC1` was tested, and the Potency was inconclusive [inhibitor, single point].
With `Cc1cc(OCc2cc(C(=O)NCc3csc(C(C)C)n3)no2)cc(C)c1Cl` the “activity change, negative = inhibition” value was inactive: -3.64%.
For `O=C(CCn1cnc2ccccc2c1=O)Nc1ccc(S(=O)(=O)N2CCCCC2)cc1`, the Potency was inconclusive [inhibitor, full curve, poor fit].
For `O=Cc1cc2ccccc2nc1SCc1ccc(Cl)cc1`, the Potency was inconclusive [inhibitor, partial curve].
For `CCCOC(=O)c1ccc(-[n+]2c(-c3ccccc3)cc(-c3ccccc3)cc2-c2ccccc2)cc1`, the Potency was inconclusive [inhibitor, full curve, poor fit].
For `CC(CO)(CO)NCc1ccc(-c2ccccc2)cc1`, the Potency was inconclusive [inhibitor, single point].
In the case of `Cc1c(Cl)cccc1-n1ncc(C(=O)NC2CCCC2)c1C1CCN(C(=O)OC(C)(C)C)CC1`, the “activity change, negative = inhibition” value was inactive: 1.26%.
With `Cc1nccn1C[C@@H]1CCc2c(c3ccccc3n2C)C1=O` the Potency was inconclusive [inhibitor, single point].
In the case of `Cn1cccc1C(=O)NC(=O)CSc1nc2ccccc2s1`, the “activity change, negative = inhibition” value was inactive: -1.58%.
`COc1ccc(N2C(=O)NC(=O)C(CCc3ccncc3)(CCc3ccncc3)C2=O)cc1` was tested, and the Potency was inconclusive [inhibitor, full curve, poor fit].
For `CC(=O)Cc1nsc(Nc2ccc(F)cc2)n1`, the “activity change, negative = inhibition” value was inactive: -0.99%.
With `COc1ccc(Nc2nc(N)nc(CSc3nccc(C)n3)n2)cc1` the Potency was inconclusive [inhibitor, full curve, poor fit].
With `CCCC(=O)NC(Nc1ccc(S(=O)(=O)Nc2ncccn2)cc1)(C(=O)OCC)C(F)(F)F` (stereo not drawn) the Potency was inconclusive [inhibitor, single point].
For `COc1ccc2c(c1)c1c(c(=O)n(-c3cc(Cl)ccc3C)c(=O)n1Cc1ccc(F)cc1)n2C`, the “activity change, negative = inhibition” value was inactive: -0.901%.
For `CCn1cc(/C=C(\NC(=O)c2ccc(C)cc2)C(=O)NCCN2CCOCC2)c2ccccc21`, the Potency was inconclusive [inhibitor, partial curve, poor fit].
For `COc1ccccc1CNC(=O)c1cccc(NC(=O)c2ccccc2)c1`, the Potency was inconclusive [inhibitor, full curve, poor fit].
For `COc1ccc(C(=O)c2ccccc2)cc1Br`, the Potency was inconclusive [inhibitor, full curve, poor fit].
For `Cc1cccc(N2C(=O)/C(=C/c3ccc(N4CCN(C)CC4)o3)C(=O)NC2=S)c1C`, the Potency was inconclusive [inhibitor, partial curve].
For `O=C(CCSc1nc(-c2ccc3c(c2)OCO3)cc(C(F)(F)F)n1)NCc1ccccc1`, the “activity change, negative = inhibition” value was inactive: 3.77%.
With `CCc1noc(C)c1C(=O)Nc1ccc(-c2nnc3n2CCCCC3)cc1` the Potency was inconclusive [inhibitor, full curve].
For `Cc1ccc(S(=O)(=O)N2c3ccc(S(N)(=O)=O)cc3CC2C)cc1` (stereo not drawn), the Potency was inconclusive [inhibitor, full curve, poor fit].
For `CCOc1ccc(C(C)=O)cc1COc1ccc(-c2nnco2)cc1`, the “activity change, negative = inhibition” value was inactive: 1.36%.
`NS(=O)(=O)c1ccc(CCNC(=O)CCCNC(=O)c2ccc(Cl)cc2)cc1` was tested, and the Potency was inconclusive [inhibitor, full curve].
`O=C(Nc1cn(-c2ccccc2)nc1-c1ccc(F)cc1)c1ccccc1` was tested, and the “activity change, negative = inhibition” value was inactive: 0.428%.
`CC(=O)NC(c1ccco1)c1ccc2cccnc2c1O` (stereo not drawn) was tested, and the Potency was inconclusive [inhibitor, full curve].
For `O=C(c1ccc(Cl)cc1)n1nc(-c2ccccc2)nc1NCc1ccco1`, the “activity change, negative = inhibition” value was inactive: -1.87%.
With `CCN(CC)CCN1C(=O)C(O)=C(C(=O)c2cc3cccc(OC)c3o2)C1c1cccs1` (stereo not drawn) the Potency was inconclusive [inhibitor, single point].
For `COc1ccc(-n2c(SCC(=O)Nc3ccc(Br)cc3)nc(O)cc2=O)cc1`, the “activity change, negative = inhibition” value was inactive: 7.17%.
In the case of `CCOC(=O)N1CCN(C(=O)CSc2ccc3nnc(-c4ccccn4)n3n2)CC1`, the Potency was inconclusive [inhibitor, full curve, poor fit].

From PubChem BioAssay AID485294 (National Center for Advancing Translational Sciences (NCATS), 2010)
Further: nearly all actives have a fitted effect of over 25% in size.
Potency means the concentration at half of the fitted maximal effect; tags describe the fitted curve by direction and shape.
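Wherever activity change, negative = inhibition is given: 0% = no-compound wells and -100% = no-enzyme wells.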
